Results published in patent publication US11918599B2 (GliaCellTech Inc., priority 2020, dated 2024).

Legend:
5×FAD mice = assay: Y-maze spatial memory after four weeks of didanosine
wild-type mice [1] = assay: as above; format: in vivo, mouse; settings: WT mice, didanosine 0.5 mg/kg/day i.p., five days per week for four weeks
[2] = system: Psen2 N141I KI model mice (KI/+); assay: Serum IL-6 after low-concentration LPS injection (ELISA); settings: didanosine 5 mg/kg i.p.
wild-type mice (WT) = assay: as above; settings: didanosine 5 mg/kg i.p., LPS 0.35 μg/kg i.p. after 4 hours, serum 24 hours after didanosine
[3] = system: Psen2 N141I KI model mice (KI/+); assay: Y-maze spatial memory, LPS-injected mice; settings: didanosine 5 mg/kg
wild-type mice [4] = assay: Y-maze spatial memory, LPS-injected mice; settings: WT mice, didanosine 5 mg/kg, LPS 0.35 μg/kg, Y-maze 24 hours after didanosine

SMILES: O=c1[nH]cnc2c1ncn2[C@H]1CC[C@@H](CO)O1 [didanosine, 9-[(2R,5S)-5-(hydroxymethyl)oxolan-2-yl]-1H-purin-6-one]
- Memory decline (in words) (5×FAD mice; 5×FAD (6 month) mice, didanosine 0.5 mg/kg/day): recovery from the memory decline
- Alternation percent (5×FAD mice; 6-month-old 5xFAD mice, didanosine 0.5 mg/kg/day i.p., five days per week for four weeks): 68.667 ± 4.096%
- Alternation percent (wild-type mice [1]): 76.667 ± 6.489%
- Level of IL-6 oversecreted by neuroinflammation (in words) ([2]; LPS 0.35 μg/kg): remarkably reduce
- IL-6 ([2]; LPS 0.35 μg/kg i.p. after 4 hours, serum 24 hours after didanosine): 297.484 ± 25.155 pg/mL
- IL-6 (wild-type mice (WT)): 312.679 ± 68.423 pg/mL
- Alternation percent ([3]; KI/+ mice, LPS 0.35 μg/kg, Y-maze 24 hours after didanosine): 75.977 ± 5.160%
- Memory performance (in words) ([3]; LPS-injected Psen2 N141I KI mice): recovered the decreased memory performance
- Alternation percent (wild-type mice [4]): 75.512 ± 5.919%
